Test results reported in PubChem BioAssay AID686978 (National Center for Advancing Translational Sciences (NCATS), 2013).
“And” between values parts separate entries of the source, which are not always exact repeats. Identical values can stand only once. Among all 420,000 compounds or so, about 64,000 (15%) were called active. Inconclusive means that the source gave no clear call. Such entries were picked first, then a sample of the others. Calls come from the whole dose curve; as a rule, active = well fitted inhibition curve with a large enough effect; inconclusive = small, poorly fitted or top-dose-only effect; inactive = flat fitted curve, though single readings scatter. Potencies beside an inconclusive call are fits to weak or partial responses and may not hold up.

Test: qHTS for Inhibitors of human tyrosyl-DNA phosphodiesterase 1 (TDP1): qHTS in cells in absence of CPT; note: nearly all actives have a fitted effect of over 55% in size
Settings: DT40 Tdp1-/- hTDP1 cells, no CPT, ATP luminescence, 48 h; activity change, negative = growth inhibition: at 46.2 µM (top of the series) unless noted
Summary of the method: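 Growth of hTDP1-complemented DT40 Tdp1-knockout cells is measured by ATP luminescence after at least 48 hr compound exposure at 37 °C, with DMSO substituting for the 20 nM CPT used in the parallel screen.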
% is set by controls: 0 for no effect and ±100 for the full control effect; potency is the fitted concentration of half-maximal effect; tags give direction and shape of the fitted curve.

SMILES	Potency	activity change, negative = growth inhibition
O=C(CSc1nc2ccccc2c(=O)[nH]1)c1ccccc1	active: 29.1 µM	–
Clc1cccc(-n2ncc3c(N4CCN(Cc5ccccc5)CC4)ncnc32)c1	inconclusive: 23.1 µM [inhibitor, single point]	–
Cc1ccc(NC(=O)c2ccc(F)c(S(=O)(=O)N3CCOCC3)c2)cc1F	inconclusive: 23.1 µM [inhibitor, partial curve]	–
CC1=C(C(=O)OC2CCCC2)C(c2coc3ccc(C)cc3c2=O)C2=C(CCCC2=O)N1 (centres undefined)	active: 20.6 µM	–
CN(C)c1ccc(-c2csc(C(O)c3ccccc3)n2)cc1 (centres undefined)	inconclusive: 16.4 µM [inhibitor, single point]	–
CC(C)COc1ccccc1C1CC(=O)Nc2cc3c(cc21)OCO3 (centres undefined)	active: 4.11 µM	–
O=C(N/N=C/c1ccccc1[N+](=O)[O-])c1ccc(COc2ccccc2-c2ccccc2)cc1	active: 11.6 µM	–
O=S(=O)(NC1c2cccc3cccc(c23)C1Sc1ncccn1)c1ccccc1 (centres undefined)	active: 20.6 µM	–
O=C(CC1CCCC1)NCCS(=O)(=O)N1CCN(c2ccc(F)cc2)CC1	inconclusive: 18.4 µM [inhibitor, single point]	–
CCN(CC)S(=O)(=O)c1ccc(N2CCOCC2)c(NC(=O)c2ccccc2F)c1	inconclusive: 25.9 µM [inhibitor, single point]	–
Cc1noc(C)c1COC(=O)C1(c2cccc(F)c2)CCCC1	inconclusive: 29.1 µM [inhibitor, single point]	–
COc1cc(C(=O)OCC(=O)c2cc(C)n(CC3CCCO3)c2C)cc(OC)c1C (centres undefined)	inconclusive: 25.9 µM [inhibitor, single point]	–
Cc1ccc(S(=O)(=O)N2[C@H](CC(=O)c3ccccc3)OC[C@@H]2C(C)C)cc1	inconclusive: 16.4 µM [inhibitor, single point]	–
COc1ccc(C(=O)O)cc1S(=O)(=O)N(CCc1ccccc1)Cc1ccccc1	inactive	–
COc1cccc(CNC(=O)Cn2ccc3cc(S(=O)(=O)N4CCC(C)CC4)ccc32)c1	inactive and inconclusive: 16.4 µM [inhibitor, single point]	–
O=c1[nH]c(CSc2nnc(COc3ccccc3)n2-c2ccccc2)nc2ccccc12	inactive	–
CCc1ccc(N(CC(=O)NC(C)(C)C)C(=O)CNC(=O)c2cccs2)cc1	inactive	–
CN(Cc1ccco1)Cc1cc(-c2ccnc3cc(Cl)ccc23)ccc1O	inconclusive: 23.1 µM [inhibitor, single point]	–
Cc1ccc(-c2nc3cccnc3s2)cc1NC(=O)Cc1ccccc1	inconclusive: 23.1 µM [inhibitor, partial curve]	–
CCC(C)n1c(SCC(=O)Nc2ccccc2C(F)(F)F)nc2ccsc2c1=O (centres undefined)	inactive	–
CCOC(=O)c1[nH]c2ccc(Cl)cc2c1-c1ccccc1	inconclusive: 14.6 µM [inhibitor, partial curve]	–
COC(=O)c1c(NC(=O)c2ccccc2[N+](=O)[O-])sc2c1CC(C)(C)NC2(C)C	inconclusive: 16.4 µM [inhibitor, partial curve]	–

SMILES	Potency	activity change, negative = growth inhibition
COc1ccc(CCNc2nc(=S)[nH]c3cc(OC)c(OC)cc23)cc1OC	inconclusive: 6.51 µM [inhibitor, partial curve]	–
COc1ccc(NC(=O)CN2C(=O)C(c3ccccc3)=NC23CCCCCC3)cc1OC	active: 18.4 µM	–
CC(C)C(NCC(=O)Nc1ccccc1C(=O)NC1CC1)c1ccccc1 (centres undefined)	inconclusive: 29.1 µM [inhibitor, single point]	–
CCOc1cc(CN2CCN(CCOCCO)CC2)ccc1OC	inactive	–
CCOc1cc(C(=O)Nc2ccc(S(=O)(=O)NC3=NCCCCC3)cc2)cc(OCC)c1OCC	inconclusive: 18.4 µM [inhibitor, partial curve, poor fit]	–
CC(=O)N1CCN(C(=O)c2ccc(NS(=O)(=O)c3cc(C)ccc3C)cc2)CC1	inconclusive: 2.91 µM [inhibitor, partial curve, poor fit]	–
Cc1ccc(-n2nc(C)c3c(C(=O)Nc4ccc(Br)c(C)c4)cc(C)nc32)cc1	inconclusive: 29.1 µM [inhibitor, single point]	–
CCOc1ccc(-c2cc(C(=O)N3CCC(C)CC3)c3ccccc3n2)cc1	inconclusive: 29.1 µM [inhibitor, single point]	–
Cc1cc(C)n(C(=O)c2ccc(NC(=O)C3CC3)cc2)n1	inconclusive: 29.1 µM [inhibitor, single point]	–
NC(=NCCc1c[nH]c2ccccc12)NS(=O)(=O)c1ccc(F)cc1	inconclusive: 29.1 µM [inhibitor, single point]	–
COCC1CCCN(C(=O)c2cc(COc3ccc4ncccc4c3)on2)C1 (centres undefined)	active: 5.8 µM	–
N#Cc1cccc(-c2nccc(-n3ccnc3)n2)c1	–	inconclusive: -31.6% [inhibitor]
COCCNc1nc(-c2ccccc2OC)nc2ccccc12	inconclusive: 18.4 µM [inhibitor, single point]	–
C/C(=N\NC(=O)c1c(Br)c(C)nn1C)c1ccc(NC(=O)c2ccoc2C)cc1	active: 23.1 µM	–
Cc1ccc2oc(=O)c3cc(C(=O)NCCN4CCN(C)CC4)sc3c2c1	inconclusive: 16.4 µM [inhibitor, partial curve, poor fit]	–
CCc1ccc(NC2=CC(=O)CC(C)(C)C2)cc1	inactive	–
COc1ccc2oc(C(=O)OC(C)C(=O)N3CCC(C)CC3)c(C)c2c1 (centres undefined)	active: 14.6 µM	–
CCC1Oc2ccc(C)cc2N(CC(=O)NCCc2ccc(OC)c(OC)c2)C1=O (centres undefined)	inconclusive: 25.9 µM [inhibitor, single point]	–
COCCNC(=O)CSc1nc(-c2ccc(C)cc2)nc2c1c(=O)n(C)c(=O)n2C	inactive	–
CC(=O)c1cccc(NC(=S)N2CCN(S(=O)(=O)c3ccc(F)cc3)CC2)c1	inactive	–
CCCOc1ccc(/C(O)=C2/C(=O)C(=O)N(c3ccccn3)C2c2ccc(OC)cc2)cc1C (centres undefined)	inactive	–
Cc1cc(-n2c(SCC(=O)Nc3ccc(Br)cc3)nc3n[nH]c(C)c3c2=N)ccc1Cl	inconclusive: 8.2 µM [inhibitor, partial curve]	–
